Structures are written as SMILES. In all, about 39,000 compounds went through this assay and about 220 (0.56%) showed activity. The list shows a part of the results.

Results on 62 compounds are retold here after the supplement of paper PMC9446081.
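Also: static incubation at 37 °C against the wild-type strain, values averaged over two biological replicates.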

This assay relates to Escherichia coli K-12 BW25113. Kind of assay: relative growth (OD600 normalised to plate interquartile mean) (fraction); higher = less growth inhibition, active = 0.2 or less. The conditions noted are these: 50 µM; LB; incubation time: overnight (16-24 h).
Consider `C[C@H](CO)N1C[C@H](C)[C@@H](CN(C)Cc2ccc3c(c2)OCO3)Oc2ccc(NC(=O)CCCN(C)C)cc2CC1=O`, for which the relative growth is inactive: 0.975. The result for `C[C@H]1CN([C@@H](C)CO)C(=O)CCCn2nncc2CO[C@@H]1CN(C)C(=O)Nc1ccnc(N2CCOCC2)c1` reads inactive: 0.947; that for `CCCCC(CC)CN1CN(CC(CC)CCCC)CC(C)(N)C1` (configuration not stated), inactive: 0.382; that for `Cc1noc(C)c1S(=O)(=O)N(C)C[C@H]1OCc2cnnn2CCCC(=O)N([C@H](C)CO)C[C@H]1C`, inactive: 0.998. With `COc1cccc(C#Cc2cnc3c(c2)C(=O)N([C@@H](C)CO)C[C@@H](C)[C@H](CN(C)C(=O)C2CCOCC2)O3)c1` the figure was inactive: 1.

As to `CC(C)N1C(=O)CNC1=S`, the relative growth was inactive: 0.992. For the compound `C[C@H]1CCCCO[C@H](CN(C)C(=O)Nc2cccc3ccccc23)[C@@H](C)CN([C@@H](C)CO)C(=O)c2cc(NC(=O)Nc3ccc(F)cc3)ccc2O1`, the relative growth is inactive: 1.02.

As to `C[C@@H]1CN([C@H](C)CO)C(=O)Cc2cc(NC(=O)CCN3CCOCC3)ccc2O[C@H]1CN(C)C(=O)Nc1ccccc1`, the relative growth was inactive: 0.987.

Take `COC(=O)[C@H](Cc1ccccc1)N1CC2=C[C@H](C3CC3)n3c(=O)n(C)c(=O)n3[C@@H]2[C@H]1[C@H](O)Cc1ccccc1`: the relative growth was inactive: 1.02.

As to `CCCNC(=O)N1C[C@@H](C)[C@@H](OC)CN(C)C(=O)c2cc(NS(=O)(=O)CC(F)(F)F)ccc2OC[C@@H]1C`, the relative growth is inactive: 0.995. On to `Cc1ccc([C@@H]2CC(=O)N[C@@H]2C(N)=O)cc1`, for which the relative growth was inactive: 0.998. With `C[C@@H]1CN([C@H](C)CO)C(=O)c2cc(NS(=O)(=O)c3ccccc3)ccc2O[C@@H](C)CCCCO[C@H]1CN(C)Cc1ccc2c(c1)OCO2` the figure was inactive: 0.992; with `COc1ccc2c3c(n(c2c1)C)[C@@H](CO)N(C[C@]13CN(C1)C(=O)Nc1cccc(c1)F)C(=O)C1CCOCC1`, inactive: 1.01. The result for `COc1ccc(NC(=O)N(C)C[C@H]2OCCCC[C@H](C)Oc3ccc(NC(=O)Nc4ccc5c(c4)OCO5)cc3C(=O)N([C@H](C)CO)C[C@@H]2C)cc1` reads inactive: 0.998; that for `CCC=CCC1=C(C)CCC1=O`, inactive: 0.878; that for `C[C@@H]1CN([C@H](C)CO)C(=O)Cc2cc(NC(=O)Cn3cnnn3)ccc2O[C@@H]1CN(C)C(=O)Nc1ccc2c(c1)OCO2`, inactive: 0.949.

Take `C[C@@H]1CCCCO[C@H](CN(C)Cc2ccncc2)[C@@H](C)CN([C@H](C)CO)C(=O)c2cc(NC(=O)Nc3ccc4c(c3)OCO4)ccc2O1`: the relative growth was inactive: 0.995. The result for `C[C@H](CO)N1C[C@H](C)[C@@H](CN(C)Cc2ccc(-c3ccccc3)cc2)Oc2c(NC(=O)CCC(F)(F)F)cccc2C1=O` reads inactive: 1.01; that for `Cc1n[nH]c(NCc2ccco2)nc1=O`, inactive: 0.993. The result for `C[C@@H]1CN([C@@H](C)CO)C(=O)c2cc(NC(=O)C3CCCCC3)ccc2O[C@@H](C)CCCCO[C@H]1CN(C)Cc1ccc2c(c1)OCO2` reads inactive: 1. `COCC(=O)N(C)C[C@H]1Oc2cc(C#Cc3cccnc3)ccc2S(=O)(=O)N([C@H](C)CO)C[C@@H]1C`: the relative growth was inactive: 0.985. The result for `O=C(C[C@H]1CC[C@@H]2[C@H](COC[C@@H](O)CN2C(=O)c2cccnc2)O1)NCC1CC1` reads inactive: 0.977; that for `C[C@H]1CN([C@@H](C)CO)C(=O)Cc2cc(NC(=O)C3CC3)ccc2O[C@H]1CN(C)C(=O)Nc1ccc(F)cc1`, inactive: 0.987; that for `CCCNC(=O)N(C)C[C@H]1Oc2cc(C#Cc3ccccn3)ccc2S(=O)(=O)N([C@H](C)CO)C[C@@H]1C`, inactive: 1.01.

In the case of `CC1(C)CC[C@]2(C(=O)O[C@@H]3O[C@H](CO)[C@@H](O[C@H]4OC[C@](O)(CO)[C@H]4O)[C@H](O)[C@H]3O)CC[C@]3(C)C(=CC[C@H]4[C@@]5(C)C[C@@H](O)[C@H](O)[C@@](C)(CO)[C@@H]5[C@H](O)C[C@]43C)[C@@H]2C1`, the relative growth was inactive: 1.01.

Take `C[C@H](CO)N1C[C@H](C)[C@H](CN(C)Cc2ccc3c(c2)OCO3)Oc2c(NC(=O)C3CC3)cccc2C1=O`: the relative growth was inactive: 0.997.

Take `C[C@@H]1CCCCO[C@@H](CN(C)Cc2ccc(Cl)c(Cl)c2)[C@H](C)CN([C@H](C)CO)C(=O)c2cc(NC(=O)C3CCCCC3)ccc2O1`: the relative growth was inactive: 0.985. The result for `O=C(NCc1ccncc1)C(=O)NC[C@H]1OCCN1C(=O)c1ccc(Cl)cc1` reads inactive: 0.985; that for `CCNc1nc(NCC)nc(OCC#N)n1`, inactive: 1.03. With `C[C@H]1CN([C@@H](C)CO)C(=O)c2cc(NC(=O)CCC(F)(F)F)ccc2O[C@@H]1CN(C)Cc1ccc(Oc2ccccc2)cc1` the figure was inactive: 1.

Turning to `C[C@H](CO)N1C[C@H](C)[C@@H](CN(C)C(=O)Nc2cccc3ccccc23)Oc2c(NC(=O)c3nc4ccccc4s3)cccc2C1=O`, the relative growth was inactive: 0.994. With `Cc1ccc(S(=O)(=O)Nc2ccc3c(c2)CC(=O)N([C@H](C)CO)C[C@@H](C)[C@@H](CN(C)C(=O)Nc2ccc(C(F)(F)F)cc2)O3)cc1` the figure was inactive: 0.971; with `C[C@@H]1CCCCO[C@H](CN(C)Cc2ccncc2)[C@@H](C)CN([C@@H](C)CO)C(=O)c2cc(NC(=O)C3CCCCC3)ccc2O1`, inactive: 0.993. The result for `NS(=O)(=O)c1ccc(F)c([N+](=O)[O-])c1` reads inactive: 1.01. Turning to `COC[C@H]1CN(C(=O)c2cccc(OC)c2)N1`, the relative growth is inactive: 1.01. The result for `C=CC(=O)c1ccc2ccccc2c1` reads inactive: 0.998; that for `C[C@H]1CN([C@@H](C)CO)C(=O)CCCn2nncc2CO[C@@H]1CN(C)C(=O)c1cc(-c2ccccc2)on1`, inactive: 0.994.

As to `C[C@@H]1CN([C@@H](C)CO)C(=O)c2cc(C#CC3(O)CCCC3)cnc2O[C@H]1CN(C)C(=O)C1CCOCC1`, the relative growth was inactive: 0.996.

For `CCCN(C)C[C@H]1OCCCC[C@H](C)Oc2ccc(NC(=O)Nc3cccc4ccccc34)cc2C(=O)N([C@@H](C)CO)C[C@H]1C`, the relative growth is inactive: 1.01. The result for `CC(=O)N(C)C[C@@H]1Oc2ncc(C#C[C@H](C)O)cc2C(=O)N([C@@H](C)CO)C[C@H]1C` reads inactive: 0.999. With `COCC(=O)Nc1ccc2c(c1)[C@H]1C[C@@H](CC(=O)N3CCOCC3)O[C@H](CO)[C@H]1O2` the figure was inactive: 0.991; with `C[C@@H]1CN([C@H](C)CO)C(=O)c2cc(NC(=O)Nc3ccc4c(c3)OCO4)ccc2O[C@H]1CN(C)Cc1ccc(Cl)c(Cl)c1`, inactive: 1; with `Cc1ccc(S(=O)(=O)N(C)C[C@@H]2Oc3c(NC(=O)NC(C)C)cccc3C(=O)N([C@H](C)CO)C[C@@H]2C)cc1`, inactive: 1. With `Nc1cc(C(=O)N2CCCC2)ccn1`, the relative growth is inactive: 1.01. The result for `COc1ccc(S(=O)(=O)N(C)C[C@H]2OCCCC[C@H](C)Oc3ccc(NC(=O)Nc4ccccc4)cc3C(=O)N([C@@H](C)CO)C[C@H]2C)cc1` reads inactive: 1.05. With `C[C@@H]1CN([C@@H](C)CO)C(=O)c2cccc(NS(=O)(=O)c3ccccc3)c2O[C@H]1CN(C)Cc1ccc(Oc2ccccc2)cc1` the figure was inactive: 1.02; with `CC(=O)N[C@@H](Cc1cccc(F)c1)C(=O)O`, inactive: 1.04; with `CCCNC(=O)Nc1ccc2c(c1)OC[C@H](C)N(Cc1ccc(-c3ccccn3)cc1)C[C@H](C)[C@H](OC)CN(C)C2=O`, inactive: 1. The result for `C[C@@H]1CN([C@@H](C)CO)C(=O)c2cc(NC(=O)c3ccncc3)ccc2O[C@@H]1CN(C)S(=O)(=O)c1cccs1` reads inactive: 1.03; that for `C[C@@H]1CN([C@H](C)CO)C(=O)c2cccc(NC(=O)c3ccncc3)c2O[C@H]1CN(C)S(=O)(=O)c1cccs1`, inactive: 0.984; that for `Cc1noc(C)c1NC(=O)Nc1ccc2c(c1)C(=O)N([C@H](C)CO)C[C@@H](C)[C@@H](CN(C)C(=O)NC1CCCCC1)OCCCC[C@H](C)O2`, inactive: 1.02.

For `O=C(Cc1n[nH]c(=O)[nH]1)NCc1n[nH]c2c1CCCCC2`, the relative growth was inactive: 1.03. With `Cc1ccc(S[C@]2(C(=O)NCC(F)(F)F)CC(=O)N(Cc3ccccc3Cl)[C@@H]2c2ccc(CO)cc2I)cc1` the figure was inactive: 0.918; with `CCCNC(=O)N1C[C@@H](C)[C@@H](OC)CN(C)C(=O)c2ccc(NS(=O)(=O)CC(F)(F)F)cc2OC[C@@H]1C`, inactive: 0.977. The result for `Cc1noc(C)c1NC(=O)Nc1cccc2c1O[C@H](CN(C)S(C)(=O)=O)[C@H](C)CN([C@H](C)CO)C2=O` reads inactive: 1.01. The result for `COc1ccccc1NC(=O)N(C)C[C@H]1Oc2ncc(Br)cc2C(=O)N([C@@H](C)CO)C[C@@H]1C` reads inactive: 0.979. Regarding `CN1CCC[C@@H](CC2c3ccccc3Sc3ccccc32)C1`, the relative growth was inactive: 0.951. The result for `C[C@@H]1CCCCO[C@H](CN(C)C(=O)Nc2ccc(C(F)(F)F)cc2)[C@@H](C)CN([C@H](C)CO)C(=O)c2cc(NC(=O)Nc3ccc4c(c3)OCO4)ccc2O1` reads inactive: 1.05; that for `COc1ccc(S(=O)(=O)N(C)C[C@@H]2Oc3ccc(NC(=O)C4CC4)cc3CC(=O)N([C@H](C)CO)C[C@@H]2C)cc1`, inactive: 0.973; that for `COc1ccc(NC(=O)Nc2ccc3c(c2)C(=O)N([C@@H](C)CO)C[C@@H](C)[C@H](CN(C)S(=O)(=O)c2c(C)noc2C)OCCCC[C@H](C)O3)cc1`, inactive: 1.02. The result for `C[C@@H]1CCCCO[C@H](CN(C)S(=O)(=O)c2cccs2)[C@H](C)CN([C@@H](C)CO)C(=O)c2cc(NC(=O)NC3CCCCC3)ccc2O1` reads inactive: 1.01; that for `C[C@@H]1CCCCO[C@@H](CN(C)C(=O)Cc2ccccc2)[C@@H](C)CN([C@@H](C)CO)C(=O)c2cc(NC(=O)Nc3ccccc3)ccc2O1`, inactive: 1.
